Assay results published in US20050147610A1 (AbbVie / Abbott, published 2005).

Legend:
125I labeled rhu-IL-18 = 125I labeled rhu-IL-18 (human, UniProt Q14116 37-193, NEM-treated cysteines; 125I label on lysine residues); assay: RBA: inhibition of 125I-rhu-IL-18 binding to IL-18Rαβ on KG-1 cells
[1] = target: T1, (4C/A)-huIL-18 (4C/A mutant of mature human IL-18) (human, UniProt Q14116 37-193); assay: BIACORE
T1 construct: All four Cys of mature IL-18 are changed to Ala; also called 4C/A mutant of IL-18; Cysteine > Alanine mutant BV derived rec. human IL-18

[2] = target: T2, NEM-huIL-18 (recombinant mature human IL-18 treated with N-ethyl maleiamide) (human, UniProt Q14116 37-193, cysteines protected with N-ethyl maleiamide (NEM)); assay: Biacore, NEM-cys protected rhuIL-18
T2 construct: monomeric; also called NEM-IL-18; NEM-rhuIL-18

[3] = target: natural human IL-18 (endogenous, human whole blood) (human, UniProt Q14116 37-193); assay: cell-based or functional assay
[4] = target: T2, NEM-huIL-18 (recombinant mature human …); assay: cell-based or functional assay

IC50 (125I labeled rhu-IL-18): 2.38 nM | Kd [1]: 0.17 nM | koff [1]: 4.78e-05 s⁻¹ | Kd [2]: 0.4 nM | WBA (IC50, nM) [3]: 3 nM | KG-1 (IC50, nM) [4]: 0.3 nM
B1: 2.5(E)wtg1 (antibody, human IgG1, kappa)
heavy: ZVQLVQSGTEVKKPGESLKISCKGSGYTVTSYWIGWVRQMPGKGLEWMGFIYPGDSETRYSPTFQGQVTISADKSFNTAFLQWSSLKASDTAMYYCARVGSGWYPYTFDIWGQGTMVTVSS[letters of human IgG1 constant region not shown]
light: EIVMTQSPATLSVSPGERATLSCRASESISSNLAWYQQKPGQAPRLFIYTASTRATDIPARFSGSGSGTEFTLTISSLQSEDFAVYYCQQYNNWPSITFGQGTRLEIKRTVAAPSVFIFPPSDEQLKSGTASVVCLLNNFYPREAKVQWKVDNALQSGNSQESVTEQDSKDSTYSLSSTLTLSKADYEKHKVYACEVTHQGLSSPVTKSFNRGEC
notes: Human IgG1 wild type/kappa
